Experimental data published in the supplement of paper PMC8512760.
The other results are listed elsewhere or left out. Most values come without repeats; read them as rough.

The compounds below were run on HCC-1143 (assay: cell viability relative to vehicle (% of vehicle); basal-like triple-negative breast cancer lines; higher = less cytotoxic). Conditions: 10 µM; 72 h.
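Further: stably firefly luciferase-GFP labeled cells in 96-well plates, viability read as luciferase photon flux after d-luciferin addition, treated wells normalized to vehicle wells, single-dose high-throughput screen.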

| Compound | cell viability |
| --- | --- |
| COc1cc(Nc2c(C#N)cnc3cc(OCCCN4CCN(C)CC4)c(OC)cc23)c(Cl)cc1Cl [Bosutinib (SKI-606)] | 65.5 |
| COc1c(C)c2c(c(O)c1CC=C(C)CCC(=O)O)C(=O)OC2 [Mycophenolic acid] | 62.9 |
| O=C1OC(C(O)CO)C(O)=C1O (stereo not given) [Vitamin C] | 95 |
| COc1cc(C(C)=O)ccc1OCCCN1CCC(c2noc3cc(F)ccc23)CC1 [Iloperidone] | 88.2 |
| O=C(NC1CCN(CCCCC2(C(=O)NCC(F)(F)F)c3ccccc3-c3ccccc32)CC1)c1ccccc1-c1ccc(C(F)(F)F)cc1 [Lomitapide] | 30.4 |
| NCCc1cnc[nH]1.O=P(O)(O)O.O=P(O)(O)O [Histamine Phosphate] | 73.5 |
| Nc1ccc(C(=O)[O-])c(O)c1.O.O.[Na+] [Sodium 4-Aminosalicylate] | 80.7 |
| CC(COc1ccccc1)N(CCCl)Cc1ccccc1.Cl (stereo not given) [Phenoxybenzamine HCl] | 90.9 |
| CC1(C)Cc2c(-c3ccccc3)c(-c3ccc(Cl)cc3)c(CC(=O)O)n2C1 [Licofelone] | 88.8 |
| CN(N=O)C(=O)NC1C(O)OC(CO)C(O)C1O (stereo not given) [Streptozocin] | 78.6 |
| CCN1CCN(C(=O)NC(C(=O)NC2C(=O)N3C(C(=O)O)=C(CSc4nnnn4C)CSC23)c2ccc(O)cc2)C(=O)C1=O (stereo not given) [Cefoperazone] | 81.6 |
| O=c1c(-c2ccc(O)cc2)coc2cc(O)ccc12 [Daidzein] | 173 |
| Cl.O=C(CCCN1CCC(O)(c2ccc(Cl)cc2)CC1)c1ccc(F)cc1 [Haloperidol hydrochloride] | 101 |
| CS(=O)(=O)c1ccc(C(O)C(CO)NC(=O)C(Cl)Cl)cc1 (stereo not given) [Thiamphenicol] | 64.7 |
| CCOc1ccc(Cc2cc(C3OC(CO)C(O)C(O)C3O)ccc2Cl)cc1 (stereo not given) [Dapagliflozin] | 81.9 |
| CN(C)C(=O)NC1CCC(CCN2CCN(c3cccc(Cl)c3Cl)CC2)CC1 (stereo not given) [Cariprazine] | 86.9 |
| NC(CO)(CO)CO.O=C(c1ccccc1)c1ccc2n1CCC2C(=O)O (stereo not given) [Ketorolac tromethamine salt] | 93.3 |
| C.CCN1CC(CCN2CCOCC2)C(c2ccccc2)(c2ccccc2)C1=O.O (stereo not given) [Doxapram HCl] | 81.2 |
| CN(C)CCOC(C)(c1ccccc1)c1ccccn1.O=C(O)CCC(=O)O (stereo not given) [Doxylamine Succinate] | 78.3 |
| CC(C)Cc1ccc(C(C)C(=O)O)cc1 (stereo not given) [Ibuprofen] | 83.4 |

| Compound | cell viability |
| --- | --- |
| CC(=O)Oc1cc2c(s1)CCN(C(C(=O)C1CC1)c1ccccc1F)C2.Cl (stereo not given) [Prasugrel hydrochloride] | 103 |
| O=C([O-])CCCc1ccccc1.[Na+] [Sodium Phenylbutyrate] | 96.1 |
| Cl.O=C1c2cccc3c2C(CCC3)CN1C1CN2CCC1CC2 (stereo not given) [Palonosetron HCl] | 89.9 |
| CC1(c2nc3c(C(N)=O)cccc3[nH]2)CCCN1 (stereo not given) [ABT-888 (Veliparib)] | 84.3 |
| CO[C@H]1C[C@@H]2CC[C@@H](C)[C@@](O)(O2)C(=O)C(=O)N2CCCC[C@H]2C(=O)O[C@H]([C@H](C)C[C@@H]2CC[C@@H](OC(=O)C(C)(CO)CO)[C@H](OC)C2)CC(=O)[C@H](C)/C=C(\C)[C@@H](O)[C@@H](OC)C(=O)[C@H](C)C[C@H](C)/C=C/C=C/C=C/1C [Temsirolimus] | 98.6 |
| CCCNC(C)C(=O)Nc1ccccc1C.Cl (stereo not given) [Prilocaine hydrochloride] | 111 |
| S=P(N1CC1)(N1CC1)N1CC1 | 96 |
| CCCCC(=O)OC1(C(=O)CO)C(C)CC2C3CCC4=CC(=O)C=CC4(C)C3(F)C(O)CC21C (stereo not given) [Betamethasone Valerate] | 83.7 |
| CN(C)CCOC(c1ccccc1)c1ccccc1.Cl [Diphenhydramine HCl] | 98.4 |
| CC1(C)SC2C(NC(=O)C(NC(=O)N3CCNC3=O)c3ccccc3)C(=O)N2C1C(=O)[O-].[Na+] (stereo not given) [Azlocillin sodium salt] | 70.4 |
| Cc1ccc(Nc2nccc(N(C)c3ccc4c(C)n(C)nc4c3)n2)cc1S(N)(=O)=O.Cl | 92.8 |
| CC(C)N=c1cc2n(-c3ccc(Cl)cc3)c3ccccc3nc-2cc1Nc1ccc(Cl)cc1 [Clofazimine] | 60.8 |
| O=C(CCc1ccc(O)cc1)c1c(O)cc(O)cc1OC1OC(CO)C(O)C(O)C1O (stereo not given) [Phloridzin] | 108 |
| O=C(CCCN1CCN(c2ccccn2)CC1)c1ccc(F)cc1 [Azaperone] | 107 |
| CC(=O)O[C@@]12CO[C@@H]1C[C@H](O)[C@@]1(C)C(=O)[C@H](O)C3=C(C)[C@@H](OC(=O)[C@H](O)[C@@H](NC(=O)OC(C)(C)C)c4ccccc4)C[C@@](O)([C@@H](OC(=O)c4ccccc4)[C@H]21)C3(C)C [Docetaxel] | 83.9 |
| CC(C)(O)c1ccccc1CCC(SCC1(CC(=O)[O-])CC1)c1cccc(C=Cc2ccc3ccc(Cl)cc3n2)c1.[Na+] (stereo not given) [Montelukast Sodium] | 72.4 |
| Nc1c(CC(=O)[O-])cccc1C(=O)c1ccc(Br)cc1.[Na+] [Bromfenac Sodium] | 85.7 |
| Cc1cccn2c(=O)c(-c3nnn[n-]3)cnc12.[K+] [Pemirolast potassium] | 102 |
| CNC(=C[N+](=O)[O-])NCCSCc1ccc(CN(C)C)o1.Cl [Ranitidine] | 78.1 |
| O=P(O)(O)C(O)(Cn1ccnc1)P(=O)(O)O [Zoledronic Acid] | 90.7 |
